{"source": "PubChem BioAssay AID588342", "about": "(National Center for Advancing Translational Sciences (NCATS), 2011)", "note": "The whole screen tested about 360,000 compounds, of which about 25,000 (6.9%) were called active. This list was built around the results that the source calls inconclusive (neither active nor inactive); the mix of calls is not that of the screen. Calls follow the shape of the dose curve; as a rule, active = well fitted inhibition curve with a large enough effect; inconclusive = small, poorly fitted or top-dose-only effect; inactive = flat fitted curve, though single readings scatter. Potencies beside an inconclusive call are fits to weak or partial responses and may not hold up. Potency is read from the fitted curve at half-maximal effect; tags tell the direction and shape of the fitted curve.", "data": [{"target": "Luciferin 4-monooxygenase (Photinus pyralis) (UniProt P08659)", "sequence (P08659 whole entry, looked up)": "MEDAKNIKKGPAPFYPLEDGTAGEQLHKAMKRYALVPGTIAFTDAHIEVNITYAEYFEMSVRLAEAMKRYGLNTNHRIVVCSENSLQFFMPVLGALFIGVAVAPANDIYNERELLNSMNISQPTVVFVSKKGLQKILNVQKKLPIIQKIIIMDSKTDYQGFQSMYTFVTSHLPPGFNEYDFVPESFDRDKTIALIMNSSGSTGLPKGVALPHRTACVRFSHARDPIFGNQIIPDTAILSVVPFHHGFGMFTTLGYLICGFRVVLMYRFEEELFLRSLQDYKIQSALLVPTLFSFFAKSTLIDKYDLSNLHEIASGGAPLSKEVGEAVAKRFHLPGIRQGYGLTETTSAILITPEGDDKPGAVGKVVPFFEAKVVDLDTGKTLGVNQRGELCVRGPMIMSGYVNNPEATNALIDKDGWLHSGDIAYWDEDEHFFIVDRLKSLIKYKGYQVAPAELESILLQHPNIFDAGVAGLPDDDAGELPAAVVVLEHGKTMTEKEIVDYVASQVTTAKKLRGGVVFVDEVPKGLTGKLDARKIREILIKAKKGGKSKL", "assay": "qHTS profiling assay for firefly luciferase inhibitor/activator using purifed enzyme and Km concentrations of substrates (counterscreen for miR-21 project); also: nearly all actives have a fitted effect of over 55% in size;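 as to activity change, negative = inhibition: plate controls were vehicle for no effect and reference inhibitor for full effect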", "conditions": "purified FLuc, luminescence inhibition; series mostly up to 57.5 µM; activity change, negative = inhibition: at the top concentration", "outline": "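Biochemical qHTS of compounds, final roughly 60 µM downward over six points, against 10 nM purified firefly luciferase using Km concentrations of substrates (10 uM D-luciferin, 10 uM ATP) in Tris acetate pH 7.5 buffer; luminescence output.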", "values": [{"molecule": "O=[N+]([O-])c1ccc(S(=O)(=O)Nc2nnc(C(F)(F)F)s2)cc1", "activity change, negative = inhibition": "inactive: -3.4%"}, {"molecule": "COc1ccccc1NC(=O)c1ccc(COc2ccc(C)c(C)c2)o1", "Potency": "inconclusive: 26.9 µM [inhibitor, partial curve, poor fit]"}, {"molecule": "COc1ccccc1-c1nnc(SCC(=O)N2CCCCC2)o1", "activity change, negative = inhibition": "inactive: -10.1%"}, {"molecule": "c1ccc2[nH]c(SCC3CCCCO3)nc2c1", "note": "(stereo not given)", "Potency": "active: 19 µM"}, {"molecule": "Cc1ccc(Oc2nnc(-c3ccccc3)c3ccccc23)cc1", "Potency": "inconclusive: 23.9 µM [inhibitor, partial curve, poor fit]"}, {"molecule": "CCS(=O)(=O)Nc1ccc(-c2cn3ccsc3n2)cc1", "Potency": "inconclusive: 26.9 µM [inhibitor, partial curve]"}, {"molecule": "Nc1nnc(-c2cc3c(ccc4ccccc43)oc2=O)s1", "activity change, negative = inhibition": "inactive: -9.11%"}, {"molecule": "CC(C)(C)c1ccc(C(=O)Nc2ccc(S(N)(=O)=O)cc2)cc1", "Potency": "inconclusive: 19 µM [inhibitor, single point]"}, {"molecule": "Cn1c(Cn2cnc3ccccc32)nnc1SCC(=O)CC(=O)Nc1ccccc1", "Potency": "inconclusive: 21.3 µM [inhibitor, partial curve, poor fit]"}, {"molecule": "COc1ccccc1-c1ccc(/C=C2/C=C(C)OC2=O)o1", "Potency": "inconclusive: 10.7 µM [inhibitor, partial curve, poor fit]"}, {"molecule": "C=CCOC(=O)c1cc(-c2ccc(/C=C3\\C(=O)NC(=O)C(C#N)=C3C)o2)ccc1Cl", "Potency": "inconclusive: 10.7 µM [inhibitor, partial curve]"}, {"molecule": "COc1ccc(C2=NN(c3nc4ccccc4s3)C(=O)/C2=C\\N(C)C)cc1", "Potency": "inconclusive: 10.7 µM [inhibitor, single point]"}, {"molecule": "Clc1ccc(-c2nn3c(C4COc5ccccc5O4)nnc3s2)cc1", "note": "(stereo not given)", "Potency": "inconclusive: 26.9 µM [inhibitor, partial curve, poor fit]"}, {"molecule": "COc1ccccc1NC(=O)NCCCCc1ccccc1", "Potency": "inconclusive: 23.9 µM [inhibitor, partial curve]"}, {"molecule": "CC(C)Oc1cccc(C(=O)Nc2ccc(Br)cc2F)c1", "Potency": "active: 0.953 µM"}, {"molecule": "COc1ccccc1Nc1ncnc2c1c(C)c(C)n2CCO", "Potency": "inconclusive: 13.5 µM [inhibitor, partial curve, poor fit]"}, {"molecule": "COc1ccc(NC(=O)c2ccc(-c3ccc([N+](=O)[O-])cc3)o2)cc1", "activity change, negative = inhibition": "inactive: -0.355%"}, {"molecule": "O=[N+]([O-])c1cc(Cl)cc(/C=N/NC(=S)Nc2ccc(S(=O)(=O)N3CCOCC3)cc2)c1O", "Potency": "inconclusive: 21.3 µM [inhibitor, single point]"}, {"molecule": "Oc1ccc(/C(Cc2ccc3ccccc3n2)=N\\Nc2ccccc2)c(O)c1", "Potency": "inconclusive: 26.9 µM [inhibitor, single point]"}, {"molecule": "Cc1cc(F)ccc1S(=O)(=O)Nc1ncnc2sc3c(c12)CCC3", "Potency": "inconclusive: 15.1 µM [inhibitor, partial curve]"}, {"molecule": "COCCn1nnnc1C(c1ccc(O)c(OC)c1)N1CCc2ccccc2C1", "note": "(stereo not given)", "Potency": "inconclusive: 23.9 µM [inhibitor, partial curve, poor fit]"}, {"molecule": "O=C(c1ccco1)N1CCN(C(c2ccccc2)c2nnnn2Cc2cccs2)CC1", "note": "(stereo not given)", "activity change, negative = inhibition": "inactive: 4.74%"}, {"molecule": "CC(C)c1ccc(/C=C2\\SC(N3CCOCC3)=NC2=O)cc1", "Potency": "inconclusive: 15.1 µM [inhibitor, partial curve]"}, {"molecule": "CC1=NOC(=O)/C1=C\\c1ccc(-c2ccc(Br)cc2C(=O)O)o1", "Potency": "inconclusive: 21.3 µM [inhibitor, single point]"}, {"molecule": "O=C(/C=C/c1ccc2c(c1)OCCCO2)c1ccc2ccccc2c1O", "Potency": "active: 2.69 µM"}, {"molecule": "COc1ccc(/C=C/C(=O)NC(=S)N2CCSCC2)cc1", "Potency": "inconclusive: 19 µM [inhibitor, partial curve]"}, {"molecule": "COc1cc2c(cc1OC)CN(Cc1cc(=O)oc3c(C)c(C)ccc13)CC2", "Potency": "inconclusive: 23.9 µM [inhibitor, partial curve, poor fit]"}, {"molecule": "COc1ccc(Cc2nnc(NC(=O)c3ccco3)s2)cc1", "Potency": "inconclusive: 16.9 µM [inhibitor, partial curve]"}, {"molecule": "C/C(=N\\NC(=O)c1ccccc1O)c1ccc(NC(=O)c2ccccc2)cc1", "Potency": "active: 21.3 µM"}, {"molecule": "Cc1nnc(SCC(=O)c2cc(C)n(C3CC3)c2C)s1", "Potency": "active: 12 µM"}, {"molecule": "CCN(CC)CCCN1C(=O)c2oc3ccccc3c(=O)c2C1c1cccs1", "note": "(stereo not given)", "Potency": "inconclusive: 19 µM [inhibitor, partial curve, poor fit]"}, {"molecule": "C/C(N)=C(/C#N)C(=O)COC(=O)c1ccccc1O", "Potency": "inconclusive: 23.9 µM [inhibitor, partial curve, poor fit]"}, {"molecule": "Cc1c(CCC(=O)NCCCC(=O)O)c(=O)oc2cc3oc4c(c3cc12)CCCC4", "Potency": "active: 19 µM"}, {"molecule": "COc1cc(/C=N/NC(=O)CC2(C)OCCCO2)ccc1OCc1ccc(Cl)cc1Cl", "Potency": "inconclusive: 37.9 µM [inhibitor, partial curve, poor fit]"}, {"molecule": "O=C(c1cnc2ccc3ccccc3c2c1)c1cc(F)ccc1O", "Potency": "inconclusive: 30.1 µM [inhibitor, single point]"}, {"molecule": "CCc1ccc(OCc2nnc(-c3ccccc3Br)o2)cc1", "Potency": "inconclusive: 23.9 µM [inhibitor, partial curve, poor fit]"}, {"molecule": "COc1ccc(C2CC(=O)N3CN(C4CCCCC4)CSC3=C2C#N)c(OC)c1", "note": "(stereo not given)", "Potency": "inconclusive: 23.9 µM [inhibitor, partial curve]"}, {"molecule": "Cc1ccc(NC(=O)c2ccc(C(C)(C)C)cc2)cc1[N+](=O)[O-]", "Potency": "active: 6.01 µM"}, {"molecule": "CCC(Oc1ccccc1-c1nnc(-c2ccccc2)o1)C(=O)Nc1ccc(C(C)=O)cc1", "note": "(stereo not given)", "activity change, negative = inhibition": "inactive: -2.35%"}, {"molecule": "COc1cccc(OC)c1C(=O)NC(=S)Nc1cccc(NC(=O)c2ccco2)c1", "Potency": "inconclusive: 30.1 µM [inhibitor, single point]"}, {"molecule": "COc1ccc(NC(=O)c2cccc(N3C(=O)c4cccc([N+](=O)[O-])c4C3=O)c2)cc1", "Potency": "active: 8.49 µM"}, {"molecule": "O=C(NCc1ccccc1)c1cccc(COc2ccc3c(c2)CCC3)c1", "Potency": "active: 1.35 µM"}, {"molecule": "COC(=O)c1cccc(C(=O)Nc2ccc(C)cc2)n1", "Potency": "active: 12 µM"}, {"molecule": "CC1CCc2c(sc3ncn(CCO)c(=O)c23)C1", "note": "(stereo not given)", "Potency": "active: 16.9 µM"}, {"molecule": "COc1ccc(-c2ccc(SCC(=O)NCC3CCCO3)nn2)cc1OC", "note": "(stereo not given)", "Potency": "inconclusive: 23.9 µM [inhibitor, partial curve, poor fit]"}, {"molecule": "Cc1ccc(S(=O)(=O)N(C)c2ccccc2C(=O)Nc2ccc3c(c2)OCCO3)cc1", "activity change, negative = inhibition": "inactive: -14.8%"}, {"molecule": "COc1ccc(CC(=O)Nc2ccccc2C(=O)N2CCOCC2)cc1", "activity change, negative = inhibition": "inactive: -1.16%"}, {"molecule": "Cc1oc2cc3oc(=O)c(CC(=O)O)c(C)c3cc2c1-c1ccccc1", "activity change, negative = inhibition": "inactive: -19.5%"}, {"molecule": "O=c1c2ccccc2nnn1COc1ccc(F)cc1Cl", "Potency": "inconclusive: 19 µM [inhibitor, partial curve]"}, {"molecule": "Cc1nc2ccccc2c(=O)n1/N=C/c1ccc(F)cc1", "Potency": "inconclusive: 37.9 µM [inhibitor, partial curve, poor fit]"}, {"molecule": "CSc1ccccc1C(=O)Nc1ccc2c(c1)OCO2", "Potency": "inconclusive: 23.9 µM [inhibitor, single point]"}, {"molecule": "Cc1ccc(NC(=O)c2c(C(F)(F)F)nn(C)c2SCc2ccc(Cl)cc2)cc1C", "Potency": "inconclusive: 19 µM [inhibitor, partial curve]"}, {"molecule": "CCOC(=O)C1(CC2CCCCO2)CCN(C(=O)Nc2ccc(SC)cc2)CC1", "note": "(stereo not given)", "Potency": "inconclusive: 30.1 µM [inhibitor, single point]"}, {"molecule": "COc1ccc(N2Cc3ccccc3C2=NC(=O)c2cncc(Br)c2)cc1", "Potency": "inconclusive: 26.9 µM [inhibitor, partial curve]"}, {"molecule": "COc1cc(C2=NOC(C(=O)Nc3ccc4c(c3)OCO4)C2)cc(OC)c1OC", "note": "(stereo not given)", "Potency": "inconclusive: 26.9 µM [inhibitor, partial curve]"}, {"molecule": "O=C(CNC(=O)c1ccc(Cl)cc1)Nc1ccc(S(=O)(=O)Nc2ncccn2)cc1", "Potency": "inconclusive: 23.9 µM [inhibitor, partial curve, poor fit]"}, {"molecule": "Cc1cc(C)n(CC(=O)NN)n1", "activity change, negative = inhibition": "inactive: 0.426%"}, {"molecule": "Cc1ccc(N(C(=O)c2csnn2)C(C(=O)NC2CCCCC2)c2ccccn2)cc1C", "note": "(stereo not given)", "activity change, negative = inhibition": "inactive: 0.428%"}, {"molecule": "COc1ccccc1C(=O)Nc1ccc2c(c1)nc(CCNC(=O)c1ccco1)n2C", "Potency": "inconclusive: 15.1 µM [inhibitor, partial curve]"}, {"molecule": "CC(C)(C)c1ccc(OCC(=O)NCc2ccco2)cc1", "Potency": "inconclusive: 21.3 µM [inhibitor, single point]"}, {"molecule": "O=C(Cn1ncn2cccc2c1=O)NCc1cccc(Br)c1", "Potency": "inconclusive: 19 µM [inhibitor, partial curve, poor fit]"}, {"molecule": "CCOC(=O)Cn1nc(/C=C/c2ccc(C)cc2)ccc1=O", "Potency": "inconclusive: 21.3 µM [inhibitor, partial curve]"}, {"molecule": "COc1ccc(N(CC(C)C)S(=O)(=O)c2nnc(NC(=O)c3ccco3)s2)cc1", "Potency": "inactive"}, {"molecule": "Cc1[nH]c2ccccc2c1/C=C/C(=O)c1ccccc1", "Potency": "inconclusive: 23.9 µM [inhibitor, single point]"}, {"molecule": "Cc1cc(N2CCN(C(=O)c3ccco3)CC2)n2nc(-c3cccc(F)c3)cc2n1", "Potency": "inconclusive: 37.9 µM [inhibitor, partial curve, poor fit]"}, {"molecule": "CC(=O)c1cccc(N/C=C\\C(=O)c2ccc(C)cc2)c1", "Potency": "active: 0.301 µM"}, {"molecule": "CCOC(=O)c1ccc(COC(=O)c2cc3ccccc3oc2=O)o1", "Potency": "inconclusive: 37.9 µM [inhibitor, single point]"}, {"molecule": "O=C(NCCc1ccccc1)c1cccc(N2CCCC2=O)c1", "Potency": "active: 2.13 µM"}, {"molecule": "Nc1nc(SCc2ccccc2)ns1", "Potency": "inconclusive: 21.3 µM [inhibitor, single point]"}, {"molecule": "Cc1cc(C)nc(CCNC(=O)c2cc(COc3ccc(F)cc3Cl)on2)n1", "Potency": "inconclusive: 30.1 µM [inhibitor, partial curve, poor fit]"}]}]}
